This assay has as its system NCI-H510 multicellular tumor spheroid growth, % test/control. Description: Anticancer human tumor NCI-H510 cell line growth inhibition [Asc].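 As to all read-outs here: spheroids exposed to agents for 7 days.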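 As to viability, T/C: 100% = DMSO vehicle control wells.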 As to conditions: for viability, T/C: stronger effect = lower value. On the procedure:
Multicellular complex tumor spheroid response to apoptosis pathway targeting inhibitors Alrizomadlin, Pelcitoclax, and Dasminapant in combination with a variety of drugs and investigational agents in selected tumor cell lines
The MDM2 inhibitor alrizomadlin, the Bcl-2/Bcl-xL inhibitor pelcitoclax, and the IAPs inhibitor dasminapant were evaluated both individually and in combination with standard of care and investigational anticancer small molecules within a complex spheroid model of solid tumors. . Complex spheroids include a stromal component modeled by human endothelial cells (HUVEC) and fibroblasts modeled by human mesenchymal stem cells (MSCs). The concentration ranges selected for each drug and investigational agent were based upon clinically achievable concentrations if the clinical Cmax of the agent was known.
Compounds. The drugs and investigational agents: alrizomadlin (APG-115; NSC831270), pelcitoclax (APG-1252; NSC835773), dasminapant (APG-1387;NSC834197), TAK-243 (NSC785004), copanlisib (NSC809693), olaparib (NSC753686), talazoparib (NSC767125), cobimetinib (NSC 768068), eltanexor (KPT-8602, NSC 794443), abemaciclib (NSC 768073), sotorasib (NSC818433), adagrasib (NSC 831453), MRTX-1133 (NSC 836407), Iadademestat (ORY1001, NSC 806812), and RMC-4630 (NSC839698), were obtained from the NCI Developmental Therapeutics Program Chemical Repository. The FDA-approved anticancer drug set is available from the Developmental Therapeutics Program at https://dtp.cancer.gov/organization/dscb/obtaining/available plates.htm. […] The stock solutions were prepared in dimethyl sulfoxide (DMSO, Sigma-Aldrich, St. Louis, MO, cat. D2650) at 800-fold the tested concentration and stored at -70 degrees C prior to their use. All drugs and investigational agents were tested over a range starting from a high concentration at or near the clinical Cmax and decreasing in half-log increments. If the clinical Cmax for an agent had not been determined, the highest concentration tested was 10 microM.
The patient-derived cancer (PDC) cell lines include five colon adenocarcinomas: 186277-243-T-J2-PDC, 616215-338-R-J1-PDC, 439559-082-T-J2-PDC, 463943-066-T-J2-PDC, and 519858-162-T-J1-PDC; three pancreatic carcinomas: 323965-272-R-J2-PDC, 521955-158-R6-J3-PDC, and 521955-158-R2-J5-PDC; two uterine sarcomas: 327498-152-R-J2-PDC and 993429-296-R-J1-PDC; two rhabdomyosarcomas: 755483-174-R-J1-PDC and 772245-204-R-J1-PDC; two soft tissue sarcomas: 126254-015-R-J1-PDC and 494315-158-R-J1-PDC; two malignant fibrous histiocytomas: 317291-083-R-J1-PDC and 596521-263-R-J1-PDC; two breast carcinomas: 171881-019-R-J1-PDC and 885512-296-R-J2-PDC; and one ovarian carcinoma: 6556581-035-R-J-PDC were obtained from the NCI PDMR, (https://pdmr.cancer.gov). The established cell lines HSSY-2 synovial sarcoma (RRID:CVCL 8719), SYO-1 synovial sarcoma (RRID:CVCL_7146), MPNST malignant peripheral neural sheath tumor were obtained from the Sloan Kettering Institute. The following established cell lines were purchased from the American Type Culture Collection (ATCC, Manassas, VA), Sor the received from the NCI repository:, PANC-1 pancreatic carcinoma (CRL-1469, RRID:CVCL_0480), OVCAR-5 ovarian carcinoma (RRID:CVCL_1628), OVCAR-8 ovarian carcinoma (RRID:CVCL_1629), , MCF-7 breast carcinoma (CRL-12584, RRID:CVCL_0031), MDA-MB-231 breast carcinoma (CRL-12532, RRID:CVCL_0062), NCI-H1876 small cell lung carcinoma (CRL-5902, RRID:CVCL_1503), NCI-H510A small cell lung carcinoma (HTB-184, RRID:CVCL_1565), NCI-H1417 (CRL-5869, RRID:CVCL_1469), and NCI-H196 small cell lung carcinoma (CRL-5823, RRID:CVCL_1509). Dr. Peter Houghton (Greehey Children's Cancer Research Institute, University of Texas Health Science Center, San Antonio, TX) provided Rh-18 rhabdomyosarcoma (RRID:CVCL_1659). Pooled donor human umbilical vein endothelial cells (HUVEC, Lonza, cat. CC-2519) and human mesenchymal stem cells (hMSC, Lonza, cat. PT-2501) were purchased from Lonza (Walkersville, MD).
Cell Culture. […]

The source holds more than one record for some entries. They are shown here; other results are not. An entry can have further records. Values given together are repeated measurements in other runs, samples, wells, individuals or studies. Counts like (3×) stand for listed records that agree. A date in brackets names the month of the test.

As for `Cc1c(S(C)(=O)=O)c(-c2cc(F)cc(N3CCN(c4ccc(NS(=O)(=O)c5ccc(NC(CCN6CCC(C(=O)OCCCP(=O)(O)O)CC6)CSc6ccccc6)c(S(=O)(=O)C(F)(F)F)c5)cc4)CC3)c2)c(-c2ccc(Cl)cc2)n1C(C)C` (stereo not drawn), the viability, T/C by setting is: (compound alone 0.1 µM) 111, 79.9, 65.2, 83.3 (2×), 88.4, 91.9, 79.6, 98.5, 97.8, 85, 106, 80.4, 123%; (compound alone 0.316 µM) 97.1, 92.2, 103 (2×), 81, 87.4, 85, 122, 95.9, 85.3, 93.4, 95.8, 74.8, 105%; (compound alone 3.16 µM) 106, 68.7, 90.4, 77.5, 85.4, 91.8, 115, 76.4, 92.1, 95.6, 78.2, 94.7, 107, 101%; (compound alone 10 µM) 70.8, 97, 83.2 (2×), 87.8, 77.3, 68.8, 89, 89.8, 84.3, 81.8, 102, 72.5, 128%.

Take `CCN1C(C(=O)NC23CCC(C(=O)O)(CC2)CC3)C(c2cccc(Cl)c2F)C2(C(=O)Nc3cc(Cl)ccc32)C12CCCCC2` (stereo not drawn): the viability, T/C (compound alone 0.03 µM) was 83.3, 102 (2×), 118, 107 (2×), 130, 67.2, 105, 97.1, 103 (2×), 98, 97.5, 111%; the viability, T/C (compound alone 0.0949 µM) is 82.4, 101, 105, 90.6, 118, 117, 74.2, 89, 104, 96.7, 91.7, 82.9, 99.3, 107, 99%; the viability, T/C (compound alone 0.3 µM) is 90, 89.7, 125, 102 (2×), 103, 100, 68, 101, 84, 107, 104 (2×), 113, 99.5%; the viability, T/C (compound alone 0.949 µM) was 107 (4×), 128, 102, 88, 91.4, 97.3, 117 (2×), 108, 90.6, 101, 105%; the viability, T/C (compound alone 3 µM) is 88.2, 89.9, 138, 102, 84.5, 96.3, 95.8, 86.5, 103, 88.3, 99.2, 111, 86.9, 97.3, 91.9%.

As to `O=C(c1cc(Cc2n[nH]c(=O)c3ccccc23)ccc1F)N1CCN(C(=O)C2CC2)CC1`, the viability, T/C (compound alone 10 µM) is recorded as 14.3%, 9.93%, 54.7%.

For the compound `CNC(C)C(=O)NC1CN(S(=O)(=O)c2cccc(S(=O)(=O)N3CCC4CCC(C(=O)NC(c5ccccc5)c5ccccc5)N4C(=O)C(NC(=O)C(C)NC)C3)c2)CCC2CCC(C(=O)NC(c3ccccc3)c3ccccc3)N2C1=O` (stereo not drawn), the viability, T/C is, setting by setting: (compound alone 0.316 µM) 69.8, 98.5, 88.6, 96.6, 102 (2×), 97.2, 107, 117, 124, 90.7, 105, 110% [2022-10] and 108% [2022-11]; (compound alone 1 µM) 104, 88.7, 102 (2×), 98, 119, 98.8, 109, 111 (2×), 98.1, 112% [2022-10] and 103% [2022-11].

`Cn1ncnc1[C@H]1c2n[nH]c(=O)c3cc(F)cc(c23)N[C@@H]1c1ccc(F)cc1`: the IC50 (compound alone) is on record as 6.25 nM, 5.86 nM, > 100 nM.

Source of the values: PubChem BioAssay AID1963438 (Molecular Pharmacology Branch, DTP, NCI, 2024).
